{"source": "patent US12478592B2", "about": "“Dosage regime with esketamine for treating neuropsychiatric or neurological conditions” (priority 2019, dated 2025)", "tested_on": "bone marrow cells of Crl:CD(SD) rats", "assay": "Mammalian erythrocyte micronucleus test, bone marrow"}
{"smiles": "CN[C@]1(c2ccccc2Cl)CCCCC1=O", "note": "[esketamine, (2S)-2-(2-Chlorophenyl)-2-(methylamino) cyclohexanone]", "values": [{"measurement": "induction of micronucleated polychromatic erythrocytes or bone marrow cell toxicity", "setting": "male or female rats, oral gavage", "result": "has not shown any evidence"}, {"measurement": "proportion of polychromatic erythrocytes vs vehicle control", "setting": "male rats, 37.5 mg/kg/day and 75 mg/kg/day, p<0.05, within historical control range, not considered biologically relevant", "result": "Statistically significant decreases"}]}
